Results: PubChem BioAssay AID1468 (National Center for Advancing Translational Sciences (NCATS), 2008)
Several values for one entry are separate records, joined by “and”; a condition that tells them apart may be missing. Equal values may be shown once. Screen size: about 280,000 compounds; about 1,100 (0.39%) were called active. Inconclusive results, whose numbers are uncertain, are shown with a selection of clear calls. The call rests on the fitted dose curve; in most records, active means well fitted inhibition curve with a large enough effect; inconclusive means small, poorly fitted or top-dose-only effect, or effect the other way; inactive means flat fitted curve, though single readings scatter. Where the call is inconclusive, the potency comes from a doubtful curve fit.

target: Microtubule-associated protein tau (Homo sapiens) (UniProt P10636); assay: qHTS for Inhibitors of Tau Fibril Formation, Fluorescence Polarization; conditions: K18 P301L tau heparin fibrillization, Alexa594 FP, 6 h; series mostly up to 57.7 µM; activity, negative = inhibition: at the top concentration; further: nearly all actives have a fitted effect of over 55% in size
Method in brief: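 Human K18 P301L fragment (15 uM unlabeled plus 0.24 uM Alexa 594-labeled) in 100 mM sodium acetate pH 7 with compound, aggregation induced by 20 uM heparin for 6 hr at 37 C. ThT (30 uM) added for 1 hr, then Alexa 594 FP read.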
On the % scale 0 is the no-effect control and ±100 the full control effect; potency means the concentration at half of the fitted maximal effect; tags describe the fitted curve by direction and shape.

Chain of UniProt P10636 (P10636 whole entry, looked up, the tested form may be a part): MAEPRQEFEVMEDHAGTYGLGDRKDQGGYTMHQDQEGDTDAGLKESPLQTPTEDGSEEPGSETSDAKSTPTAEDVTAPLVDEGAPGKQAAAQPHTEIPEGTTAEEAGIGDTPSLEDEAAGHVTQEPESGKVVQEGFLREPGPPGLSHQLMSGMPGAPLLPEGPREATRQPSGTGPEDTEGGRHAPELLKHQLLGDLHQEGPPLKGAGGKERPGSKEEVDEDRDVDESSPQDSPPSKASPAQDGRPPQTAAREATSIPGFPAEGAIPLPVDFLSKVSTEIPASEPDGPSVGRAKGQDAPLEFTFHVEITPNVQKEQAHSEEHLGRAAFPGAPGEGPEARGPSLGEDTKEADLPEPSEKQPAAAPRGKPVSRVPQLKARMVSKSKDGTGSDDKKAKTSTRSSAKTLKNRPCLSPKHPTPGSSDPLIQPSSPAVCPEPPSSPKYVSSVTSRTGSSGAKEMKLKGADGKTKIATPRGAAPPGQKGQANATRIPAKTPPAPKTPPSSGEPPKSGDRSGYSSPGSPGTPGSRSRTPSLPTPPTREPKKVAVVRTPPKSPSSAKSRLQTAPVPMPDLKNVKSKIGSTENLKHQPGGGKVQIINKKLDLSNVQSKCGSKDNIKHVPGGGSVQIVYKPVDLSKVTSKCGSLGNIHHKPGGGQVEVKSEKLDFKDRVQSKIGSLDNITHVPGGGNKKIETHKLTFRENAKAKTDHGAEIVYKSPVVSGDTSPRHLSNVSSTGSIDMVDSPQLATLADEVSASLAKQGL

| Compound | activity, negative = inhibition | Potency |
| --- | --- | --- |
| CC(/C=N/Nc1nnc2c(n1)[nH]c1ccccc12)=C\c1ccco1 | inactive: -12.4% | – |
| CCOc1cc(N2CCOCC2)c(OCC)cc1NC(=O)COc1ccccc1[N+](=O)[O-] | – | inconclusive: 0.126 µM [activator, full curve, poor fit] |
| Cc1nc2cc(-c3ccc(Cl)cc3)nn2c(NCCN(C)C)c1C | inactive: -1.79% | – |
| O=c1[nH]cnc2sc3c(c12)CCN(Cc1ccccc1)C3 | – | inconclusive: 39.8 µM [inhibitor, single point] |
| Cc1nn(-c2ccccc2)c(C)c1S(=O)(=O)O | inactive: 5.11% | – |
| CC(=O)N1CC[n+]2c(-c3ccc([N+](=O)[O-])cc3)csc21 | – | inconclusive: 39.8 µM [inhibitor, single point] |
| Cc1ccccc1NCN1C(=O)C2CCC(C)(C1=O)C2(C)C (configuration not stated) | – | inconclusive: 20 µM [inhibitor, partial curve, poor fit] |
| Cc1cccc(-n2nnc(C(=O)NCc3ccccc3Cl)c2N)c1 | – | inconclusive: 17.8 µM [inhibitor, single point] |
| OCC(CO)(CO)N=Cc1c(O)ccc2ccccc12 | – | inconclusive: 28.2 µM [inhibitor, partial curve] |
| O=C(N/N=C/C1CC=CCC1)c1cc2ccccc2cc1O (configuration not stated) | inactive: -5.68% | – |
| CCN(CC)CC(O)COc1ccccc1C(=O)CCc1ccccc1 (configuration not stated) | inactive: 2% | – |
| COc1nc(NC23CC4CC(CC(C4)C2)C3)nc(OC)n1 | inactive: -6.48% | – |
| O=C(NCc1ccco1)c1cccc(Nc2nc3ccc(Br)cc3[nH]2)c1 | – | inconclusive: 39.8 µM [inhibitor, partial curve, poor fit] |
| CCCN(CCC)CC(O)CN(c1cc([N+](=O)[O-])ccc1OC)S(=O)(=O)c1ccccc1 (configuration not stated) | inactive: 1.41% | – |
| O=C(CSc1nnc(-c2ccccc2)c(-c2ccccc2)n1)N1CCc2ccccc21 | inactive: 4.68% | – |
| O=C(COC(=O)CCc1c[nH]c2ccccc12)NCc1ccc(Cl)cc1 | – | inconclusive: 4.47 µM [activator, partial curve] |
| NC(=O)CSc1nc2ccc(NC(=O)COc3ccccc3)cc2s1 | inactive: -4.85% | – |
| CC1CCC(NC(=O)c2ccc3c(c2)N(Cc2ccccc2F)C(=O)c2ccccc2S3)CC1 (configuration not stated) | inactive: -10.8% | – |
| Cc1ccc(/C=C(\C#N)C(=O)Nc2cccc3ncccc23)o1 | – | inconclusive: 25.1 µM [inhibitor, partial curve, poor fit] |
| COc1ccc(COc2cc(-c3cccc(OC)c3)nc3ccc(N)cc23)cc1 | – | inconclusive: 7.94 µM [activator, partial curve] and inconclusive: 3.16 µM [activator, full curve, poor fit] |
| COc1ccc(N=Cc2nc(-c3ccccc3)oc2OC(C)=O)cc1 | – | inconclusive: 44.7 µM [inhibitor, single point] |
| NS(=O)(=O)c1ccc(NC(=O)c2cc(-c3cccs3)nc3ccccc23)cc1 | – | inconclusive: 8.91 µM [inhibitor, partial curve, poor fit] and inconclusive: 14.1 µM [inhibitor, partial curve] |
| Cc1ccc(NC(=O)CCCc2nnc3n(C)c(=O)c4sccc4n23)cc1C | inactive: 7.47% | – |

| Compound | activity, negative = inhibition | Potency |
| --- | --- | --- |
| O=C(CSc1ccccc1)Nc1ccc(S(=O)(=O)NCC2CCCO2)cc1 (configuration not stated) | inactive: -0.649% | – |
| O=C(NNS(=O)(=O)c1ccc(Br)cc1)C1CCCCC1 | inactive: -3.63% | – |
| COc1ccc(NC(=O)C2=C(C)Nc3nc(SCc4ccc(C)cc4C)nn3C2c2cccc(OC)c2OC)cc1 (configuration not stated) | inactive: -13.8% | – |
| Cc1oc2ncnc(N3CCCCC3)c2c1C(=O)NCC1CCN(Cc2ccccc2F)CC1 | inactive: -2.89% | – |
| CC(Nc1nc(-c2ccccc2O)nc2ccccc12)c1ccccc1 (configuration not stated) | – | inconclusive: 14.1 µM [inhibitor, partial curve] |
| O=C(CSc1nnnn1-c1ccc(O)cc1)c1cc2ccccc2o1 | – | inconclusive: 39.8 µM [inhibitor, single point] |
| COc1ccc(N2CCN(C(=O)C(C)(C)Oc3ccc(Cl)cc3)CC2)cc1 | inactive: 9.26% | – |
| N#C/C(=N\Nc1ccccc1Cl)C(=O)c1ccccc1 | – | inconclusive: 0.126 µM [activator, full curve, poor fit] |
| CCc1ccc(C(C)NC(=O)/C(C#N)=C\c2cn[nH]c2-c2ccccc2)cc1 (configuration not stated) | – | inconclusive: 22.4 µM [inhibitor, single point] |
| COc1cc(NC(=O)Cn2c(=O)n(Cc3ccccc3)c(=O)c3oc4ccccc4c32)cc(OC)c1 | – | inconclusive: 14.1 µM [inhibitor, partial curve] |
| CCCN(CCC)CCCNC(=O)C1c2cc(OC)c(OC)cc2C(=O)N(C)C1c1cccs1 (configuration not stated) | – | inconclusive: 39.8 µM [inhibitor, single point] |
| CC1(c2cccc([N+](=O)[O-])c2)CC(C)(C)N(C(=O)c2ccccc2)c2ccccc21 (configuration not stated) | – | inconclusive: 14.1 µM [inhibitor, single point] |
| Cc1cc(C)cc(NC(=O)CC(C)n2nc(C)cc2C)c1 (configuration not stated) | inactive: -12.7% | – |
| COc1ccccc1NC(=S)NCCSc1ccc(Cl)cc1 | inactive: -13% | – |
| COc1ccc(SN=C2C(C)=CC(=O)C=C2C)cc1 | – | inconclusive: 7.94 µM [inhibitor, single point] |
| O=C(CN1C(=O)C2CCCCN2c2ccc(C(=O)N3CCCC3)cc21)NCc1ccc(F)cc1 (configuration not stated) | inactive: 3.8% | – |
| CC(C)c1ccc(-c2c(C#N)c(N)nc(SCC(=O)N3CCCCC3)c2C#N)cc1 | – | inconclusive: 17.8 µM [inhibitor, partial curve] |
| O=C(Nc1ccc(S(=O)(=O)Nc2ncccn2)cc1)c1cccc(Cl)c1 | inactive: -3.75% | – |
| COc1ccc(-n2cc(C(=O)NCCc3ccc(C)cc3)c3ccccc3c2=O)cc1 | – | inconclusive: 2.51 µM [inhibitor, full curve, poor fit] |
| O=C(c1cccs1)n1nc(-c2cccnc2)nc1NCc1ccco1 | – | inconclusive: 3.16 µM [inhibitor, full curve, poor fit] |
| CCOC(=O)CSC1=Nc2ccccc2C2=NC(CC(=O)NCc3ccc(OC)cc3)C(=O)N12 (configuration not stated) | inactive: 1.65% | – |
| O=C(Nc1cccc(C(F)(F)F)c1)c1cc(Br)cc2c1OCC2 | – | inconclusive: 14.1 µM [inhibitor, partial curve] |
| CC(C)(C)c1nnc(NC(=O)c2cc(-c3ccccc3)nc3ccccc23)s1 | – | inconclusive: 35.5 µM [inhibitor, single point] |

| Compound | activity, negative = inhibition | Potency |
| --- | --- | --- |
| CCN(CC)C(=O)Cn1c(=O)n(CCCCCC(=O)NCc2ccccc2Cl)c(=O)c2sccc21 | inactive: -6.54% | – |
| COc1ccc(-c2csc(NC(=S)NC(=O)c3cccs3)n2)cc1Br | – | inconclusive: 28.2 µM [inhibitor, partial curve] |
| COC(=O)COc1ccc(S(=O)(=O)N2CCN(c3ccc(F)cc3)CC2)cc1 | – | inconclusive: 35.5 µM [inhibitor, single point] |
| Cc1ccc(C)n1-c1nnc(N2CCCC(C(=O)NCc3ccc(F)cc3)C2)s1 (configuration not stated) | – | inconclusive: 0.141 µM [inhibitor, full curve, poor fit] |
| O=C1C(=Cc2ccc(Br)o2)C(=O)c2ccccc21 | – | inconclusive: 25.1 µM [inhibitor, partial curve] |
| O=C(CC(c1ccccc1)c1cc(Br)ccc1O)NCC1(c2ccccc2)CCCC1 (configuration not stated) | – | inconclusive: 11.2 µM [inhibitor, partial curve, poor fit] |
| Cc1ccccc1OCCNc1cc(N2CCNCC2)ccc1[N+](=O)[O-] | – | inconclusive: 25.1 µM [inhibitor, partial curve] |
| COc1cc(NC(=O)c2ccc3c(c2)OCO3)c2ncccc2c1 | – | inconclusive: 20 µM [inhibitor, partial curve] |
| CSCCC(NC(=O)c1ccccc1Br)C(=O)Nc1ccc(C)cc1 (configuration not stated) | inactive: -15.5% | – |
| COc1cc(OC)c(-c2c3cc(O)c(=O)cc-3oc3cc(O)c(O)cc23)cc1OC | – | inconclusive: 11.2 µM [inhibitor, partial curve, poor fit] |
| COc1cc(OC)cc(C(=O)Nc2c(C(=O)Nc3ccc(F)cc3)oc3ccccc23)c1 | – | inconclusive: 12.6 µM [inhibitor, partial curve] |
| CN(c1ccccc1)S(=O)(=O)c1cccc(NC(=O)Cn2cnc3c2c(=O)n(C)c(=O)n3C)c1 | – | inconclusive: 28.2 µM [inhibitor, single point] |
| CCCCCC(=O)N1CCN(CCN=CC2=C(O)CC(c3ccc(OC)c(OC)c3)CC2=O)CC1 (configuration not stated) | inactive: 5.35% | – |
| Cc1cc(C)cc(NC(=O)Cn2nnc(C(=O)Nc3cc(C)cc(C)c3)c2N)c1 | – | inconclusive: 15.8 µM [inhibitor, partial curve] |
| O=C(Cn1c(=O)n(Cc2ccccc2)c(=O)c2oc3ccccc3c21)Nc1ccc(Cl)cc1 | – | inconclusive: 12.6 µM [inhibitor, partial curve] |
| CCCN1C(=O)S/C(=C/c2ccc(N3CCOCC3)o2)C1=O | – | inconclusive: 5.62 µM [activator, full curve, poor fit] |
| CC(C)c1ccc(NC(=O)c2ccc(NC(=O)CCS(=O)(=O)c3cccs3)cc2)cc1 | – | inconclusive: 7.08 µM [inhibitor, partial curve] |
| Cc1ccc(CCNc2nc3c(S(=O)(=O)c4ccc(C)cc4)nnn3c3ccsc23)cc1 | – | inconclusive: 15.8 µM [inhibitor, partial curve] |
| C=CCNC(=S)Nc1ccc(C)cc1[N+](=O)[O-] | inactive: 9.73% | – |
| Cc1ccc(C)c(NC(=S)NC(C)C(c2cccs2)N2CCOCC2)c1 (configuration not stated) | – | inconclusive: 1.26 µM [inhibitor, partial curve] |
| COC(=O)c1cc2occc2n1Cc1ccc(Cl)cc1 | – | inconclusive: 20 µM [inhibitor, single point] |
